Assay results taken from PubChem BioAssay (NCATS).
Several values for one entry are separate records, joined by “and”; a condition that tells them apart may be missing. Equal entries are not always repeated. Inconclusive results, whose numbers are uncertain, are shown with a selection of clear calls. Potencies beside an inconclusive call are fits to weak or partial responses and may not hold up. Activity calls are given as the source filed them. Calls follow the shape of the dose curve; as a rule, active = well fitted cell-killing curve with a large enough effect; inconclusive = small, poorly fitted or top-dose-only effect; inactive = flat fitted curve, though single readings scatter.

Test: Cellular viability qHTS for adrenocortical cancer (ACC) cell line NCI-H295R (AID 1963990); also: nearly all actives have a fitted effect of over 60% in size;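 as to activity change, negative = viability loss: 0% = DMSO only wells and -100% = full killing with cytotoxic reference compound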
Details: CellTiter-Glo ATP luminescence, 48 h; activity change, negative = viability loss: at 46.1 µM (top of the series)
Outline: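 Adrenocortical carcinoma cells, suspended at 300 000 cells/mL in serum-free DMEM plus ITS, rested overnight before pin transfer of compound. After two days' incubation, ATP-dependent luminescence was recorded and curve-fitted.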
Potency is read from the fitted curve at half-maximal effect; tags tell the direction and shape of the fitted curve.

Compound	Potency	activity change, negative = viability loss
C[C@H]1C[C@H]2[C@@H]3CCC4=CC(=O)C=C[C@]4(C)[C@@]3(Cl)[C@@H](O)C[C@]2(C)[C@@]1(O)C(=O)CO	inconclusive: 29.1 µM [cytotoxic, single point]	
CCNC1(C(N)=O)CCN(c2ncnc3c2nc(-c2ccccc2Cl)n3-c2ccc(Cl)cc2)CC1		inconclusive: 36.3%
CC(=O)O/N=C1/C(c2c(O)[nH]c3cc(Br)ccc23)=Nc2ccccc21	active: 15.8 µM	
CC(C)COCC(CN(Cc1ccccc1)c1ccccc1)N1CCCC1 (stereo not drawn)	inconclusive: 29.1 µM [cytotoxic, single point] and active: 15.8 µM	
O=C(/C=C/C=C/c1ccc2c(c1)OCO2)N1CCCCC1	inconclusive: 20 µM [cytotoxic, partial curve]	
COc1cc2c3c(n(CCCn4ccnc4)c(=O)c2cc1OC)-c1cc2c(cc1C3=O)OCO2	inconclusive: 4.47 µM [cytotoxic, full curve]	
Nc1ncnc2c1C(=O)N(c1ccc(C3CCC(CC(=O)O)CC3)cc1)CCO2 (stereo not drawn)	inactive	
O=C(CCN1CCN2CCCC2C1)N1c2ccccc2Sc2ccc(Cl)cc21 (stereo not drawn)	inconclusive: 8.93 µM [cytotoxic, partial curve, poor fit]	
Cc1cc2nc3c(=O)[nH]c(=O)nc-3n(C[C@H](O)[C@H](O)[C@H](O)CO)c2cc1C	inconclusive: 14.2 µM [cytotoxic, single point]	
CCCCCC=CCC=CCCCCCCCC(=O)OCC	inconclusive: 20.6 µM [cytotoxic, single point]	
Cc1onc(-c2ccc(F)cc2)c1COc1ccc(C(=O)N2CCS(=O)(=O)CC2)cn1	inactive	
Nc1nc(OCc2cc(Br)cs2)c2[nH]cnc2n1	inactive	
CC(=O)O[C@]1(C(C)=O)CC[C@H]2[C@@H]3C=C(C)C4=CC(=O)CC[C@]4(C)[C@H]3CC[C@@]21C	inconclusive: 6.51 µM [rising, partial curve, poor fit]	
CN1CCN(c2c(F)cc3c(=O)c(C(=O)O)cn4c3c2SCC4)CC1	inconclusive: 4.61 µM [cytotoxic, full curve]	
C=C1/C(=C/C=C2\CCCC3(C)[C@@H]([C@H](C)/C=C/C=C/C(O)(CC)CC)CC[C@@H]23)C[C@@H](O)C[C@@H]1O (stereo partly drawn)	inconclusive: 8.91 µM [cytotoxic, partial curve, poor fit]	
O=C(NO)c1cnc(N2C[C@H]3C[C@@H]2CN3c2cc(C(F)(F)F)ccn2)nc1	active: 2.82 µM	
O=C(O)c1ccccc1C(=O)Nc1ccc(S(=O)(=O)Nc2nccs2)cc1	inactive	
Cc1ccc(NC(=O)[C@H]2CCCN(C(=O)c3c(C)cccc3F)[C@H]2c2ccc(NC3CCCC3)cc2)cc1C(F)(F)F	inactive	
OC(CCCN1CCCCC1)(c1ccccc1)c1ccccc1	inactive	
COC(=O)c1cc(Cl)ccc1NS(=O)(=O)C(F)(F)F	inactive	
O=C(NN1CCCC1)NS(=O)(=O)c1ccc(Cl)cc1	inactive	
CCN(CC)CCOC(=O)C(Cc1cccc2ccccc12)CC1CCCO1 (stereo not drawn)	inconclusive: 32.6 µM [cytotoxic, single point]	
O=c1[nH]c([C@@H]2CCCN2)nc2c1oc1ccc(Cl)cc12	inconclusive: 22.4 µM [cytotoxic, partial curve, poor fit]	
CC(=O)OCC(=O)[C@@]1(O)CC[C@H]2[C@@H]3CCC4=CC(=O)C=C[C@]4(C)[C@H]3[C@@H](O)C[C@@]21C	inactive	
CN1CCC(OC(c2ccccc2)c2ccccc2)CC1	inconclusive: 0.92 µM [cytotoxic, full curve, poor fit]	
O=C(CCCCCCCCC#CI)Oc1ccccc1	active: 13 µM	
CCc1oc2ccccc2c1C(=O)c1cc(Br)c(O)c(Br)c1	active: 7.31 µM	
CO[C@H]1C=CO[C@@]2(C)Oc3c(C)c(O)c4c(O)c(c(/C=N/N5CCN(C)CC5)c(O)c4c3C2=O)NC(=O)/C(C)=C\C=C[C@H](C)[C@H](O)[C@@H](C)[C@@H](O)[C@@H](C)[C@H](OC(C)=O)[C@@H]1C	inactive	
